Laboratory results from PMC9911399, “Two distinct binding modes provide the RNA-binding protein RbFox with extraordinary sequence specificity”.
Numbering of substitutions follows the chain as printed; changes in the protein carry UniProt numbers. The list shows a part of the results.

T1: RBFOX1 RRM (Homo sapiens, UniProt Q9NWB1 109-208)
T1 sequence: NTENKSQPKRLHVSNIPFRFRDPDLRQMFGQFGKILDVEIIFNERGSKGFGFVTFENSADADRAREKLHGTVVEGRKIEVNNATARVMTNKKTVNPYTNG

B1: CCCUCAG (DNA:RNA)
RNA: GGGAGACCGGAAUUCAGAUUGUCCCCCUCAGUUAAAUCCCGUCGUAGCCACCA
DNA 1: CAATCTGAATTCCGGTCTCCC
DNA 2: TGGTGGCTACGACGGGATT
B2: GGUUCAU (DNA:RNA)
RNA: B1 RNA with C25G, C26G, C27U, G31U
DNA 1: CAATCTGAATTCCGGTCTCCC
DNA 2: TGGTGGCTACGACGGGATT
B3: GACUUCG (DNA:RNA)
RNA: B1 RNA with C25G, C26A, C29U, A30C
DNA 1: CAATCTGAATTCCGGTCTCCC
DNA 2: TGGTGGCTACGACGGGATT
B4: AAUCAAU (DNA:RNA)
RNA: B1 RNA with C25A, C26A, C27U, U28C, C29A, G31U
DNA 1: CAATCTGAATTCCGGTCTCCC
DNA 2: TGGTGGCTACGACGGGATT
B5: GUGUGGU (DNA:RNA)
RNA: B1 RNA with C25G, C26U, C27G, C29G, A30G, G31U
DNA 1: CAATCTGAATTCCGGTCTCCC
DNA 2: TGGTGGCTACGACGGGATT
B6: ACAGUCG (DNA:RNA)
RNA: B1 RNA with C25A, C27A, U28G, C29U, A30C
DNA 1: CAATCTGAATTCCGGTCTCCC
DNA 2: TGGTGGCTACGACGGGATT
B7: CAAAUAG (DNA:RNA)
RNA: B1 RNA with C26A, C27A, U28A, C29U
DNA 1: CAATCTGAATTCCGGTCTCCC
DNA 2: TGGTGGCTACGACGGGATT
B8: CGAUCAG (DNA:RNA)
RNA: B1 RNA with C26G, C27A
DNA 1: CAATCTGAATTCCGGTCTCCC
DNA 2: TGGTGGCTACGACGGGATT
B9: AAAAUCA (DNA:RNA)
RNA: GGGAGACCGGAAUUCAGAUUGUCCAAAAUCAUUAAAUCCCGUCGUAGCCACCA
DNA 1: CAATCTGAATTCCGGTCTCCC
DNA 2: TGGTGGCTACGACGGGATT
B10: UCGCAUA (DNA:RNA)
RNA: B9 RNA with A25U, A26C, A27G, A28C, U29A, C30U
DNA 1: CAATCTGAATTCCGGTCTCCC
DNA 2: TGGTGGCTACGACGGGATT
B11: UAUUCCG (DNA:RNA)
RNA: B1 RNA with C25U, C26A, C27U, A30C
DNA 1: CAATCTGAATTCCGGTCTCCC
DNA 2: TGGTGGCTACGACGGGATT
B12: UCUCAUG (DNA:RNA)
RNA: B1 RNA with C25U, C27U, U28C, C29A, A30U
DNA 1: CAATCTGAATTCCGGTCTCCC
DNA 2: TGGTGGCTACGACGGGATT
B13: CCGGAAA (DNA:RNA)
RNA: B1 RNA with C27G, U28G, C29A, G31A
DNA 1: CAATCTGAATTCCGGTCTCCC
DNA 2: TGGTGGCTACGACGGGATT
B14: AGUACUA (DNA:RNA)
RNA: B9 RNA with A26G, A27U, U29C, C30U
DNA 1: CAATCTGAATTCCGGTCTCCC
DNA 2: TGGTGGCTACGACGGGATT
B15: UUGCUGG (DNA:RNA)
RNA: B9 RNA with A25U, A26U, A27G, A28C, C30G, A31G
DNA 1: CAATCTGAATTCCGGTCTCCC
DNA 2: TGGTGGCTACGACGGGATT
B16: GAUCCUG (DNA:RNA)
RNA: B1 RNA with C25G, C26A, C27U, U28C, A30U
DNA 1: CAATCTGAATTCCGGTCTCCC
DNA 2: TGGTGGCTACGACGGGATT
B17: AGGACAG (DNA:RNA)
RNA: B1 RNA with C25A, C26G, C27G, U28A
DNA 1: CAATCTGAATTCCGGTCTCCC
DNA 2: TGGTGGCTACGACGGGATT
B18: AGUGCAA (DNA:RNA)
RNA: B9 RNA with A26G, A27U, A28G, U29C, C30A
DNA 1: CAATCTGAATTCCGGTCTCCC
DNA 2: TGGTGGCTACGACGGGATT
B19: CCGCGGG (DNA:RNA)
RNA: B1 RNA with C27G, U28C, C29G, A30G
DNA 1: CAATCTGAATTCCGGTCTCCC
DNA 2: TGGTGGCTACGACGGGATT
B20: UGAGGGA (DNA:RNA)
RNA: B9 RNA with A25U, A26G, A28G, U29G, C30G
DNA 1: CAATCTGAATTCCGGTCTCCC
DNA 2: TGGTGGCTACGACGGGATT
B21: GAGCUAU (DNA:RNA)
RNA: B9 RNA with A25G, A27G, A28C, C30A, A31U
DNA 1: CAATCTGAATTCCGGTCTCCC
DNA 2: TGGTGGCTACGACGGGATT
B22: GCACCGC (DNA:RNA)
RNA: B1 RNA with C25G, C27A, U28C, A30G, G31C
DNA 1: CAATCTGAATTCCGGTCTCCC
DNA 2: TGGTGGCTACGACGGGATT
B23: CAAAAUC (DNA:RNA)
RNA: B9 RNA with A25C, U29A, C30U, A31C
DNA 1: CAATCTGAATTCCGGTCTCCC
DNA 2: TGGTGGCTACGACGGGATT
B24: AUGGCAG (DNA:RNA)
RNA: B1 RNA with C25A, C26U, C27G, U28G
DNA 1: CAATCTGAATTCCGGTCTCCC
DNA 2: TGGTGGCTACGACGGGATT
B25: AGGACAU (DNA:RNA)
RNA: B9 RNA with A26G, A27G, U29C, C30A, A31U
DNA 1: CAATCTGAATTCCGGTCTCCC
DNA 2: TGGTGGCTACGACGGGATT
B26: AUGGAUC (DNA:RNA)
RNA: B9 RNA with A26U, A27G, A28G, U29A, C30U, A31C
DNA 1: CAATCTGAATTCCGGTCTCCC
DNA 2: TGGTGGCTACGACGGGATT
B27: GUAACGC (DNA:RNA)
RNA: B9 RNA with A25G, A26U, U29C, C30G, A31C
DNA 1: CAATCTGAATTCCGGTCTCCC
DNA 2: TGGTGGCTACGACGGGATT
B28: UUGUAUC (DNA:RNA)
RNA: B1 RNA with C25U, C26U, C27G, C29A, A30U, G31C
DNA 1: CAATCTGAATTCCGGTCTCCC
DNA 2: TGGTGGCTACGACGGGATT
B29: CUCUCAG (DNA:RNA)
RNA: B1 RNA with C26U
DNA 1: CAATCTGAATTCCGGTCTCCC
DNA 2: TGGTGGCTACGACGGGATT
B30: UCGGUCC (DNA:RNA)
RNA: B9 RNA with A25U, A26C, A27G, A28G, A31C
DNA 1: CAATCTGAATTCCGGTCTCCC
DNA 2: TGGTGGCTACGACGGGATT
B31: AGAGGAA (DNA:RNA)
RNA: B9 RNA with A26G, A28G, U29G, C30A
DNA 1: CAATCTGAATTCCGGTCTCCC
DNA 2: TGGTGGCTACGACGGGATT

Biological target: T1, RBFOX1 RRM
Test: EMSA; HiTS-Eq, 1 nM pool, 10 min; buffer printed only for the single-RNA assays: 10 mM Tris pH 7.5, 150 mM NaCl, 3.4 mM EDTA, 0.001% NP-40, 30 C
Details: tags: His6 N-terminal (pET28a); label: 5' 32P
In short: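 Purified RbFox RRM, wild type or mutant, was incubated for 10 min in 50 µL with 1 nM of a 5′-radiolabelled RNA pool carrying 7 randomized nucleotides, whose flanks were annealed to DNA oligonucleotides, over a series of increasing protein concentrations. Unbound RNA was resolved on 8% native PAGE, cut out, reverse-transcribed, barcoded by PCR and sequenced on an Illumina HiSeq 2500. Relative association constants were derived from changes in read counts for each RNA species versus the control reaction and normalised to the cognate motif.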

| Binder | binding signal |
| --- | --- |
| B1 | 0.00616 KA relative to UGCAUGU |
| B2 | 0.00857 KA relative to UGCAUGU |
| B3 | 0.0143 KA relative to UGCAUGU |
| B4 | 0.000959 KA relative to UGCAUGU |
| B5 | 0.019 KA relative to UGCAUGU |
| B6 | 0.00735 KA relative to UGCAUGU |
| B7 | 0.00168 KA relative to UGCAUGU |
| B8 | 0.012 KA relative to UGCAUGU |
| B9 | 0.000438 KA relative to UGCAUGU |
| B10 | 0.00838 KA relative to UGCAUGU |
| B11 | 0.0063 KA relative to UGCAUGU |
| B12 | 0.0075 KA relative to UGCAUGU |
| B13 | 0.00992 KA relative to UGCAUGU |
| B14 | 0.00309 KA relative to UGCAUGU |
| B15 | 0.0302 KA relative to UGCAUGU |
| B16 | 0.0145 KA relative to UGCAUGU |

| Binder | binding signal |
| --- | --- |
| B17 | 0.0256 KA relative to UGCAUGU |
| B18 | 0.00816 KA relative to UGCAUGU |
| B19 | 0.00626 KA relative to UGCAUGU |
| B20 | 0.00562 KA relative to UGCAUGU |
| B21 | 0.00977 KA relative to UGCAUGU |
| B22 | 0.00949 KA relative to UGCAUGU |
| B23 | 0.00237 KA relative to UGCAUGU |
| B24 | 0.0134 KA relative to UGCAUGU |
| B25 | 0.00885 KA relative to UGCAUGU |
| B26 | 0.0153 KA relative to UGCAUGU |
| B27 | 0.0122 KA relative to UGCAUGU |
| B28 | 0.00973 KA relative to UGCAUGU |
| B29 | 0.00909 KA relative to UGCAUGU |
| B30 | 0.00905 KA relative to UGCAUGU |
| B31 | 0.00495 KA relative to UGCAUGU |
